According to PubChem BioAssay AID651820 (National Center for Advancing Translational Sciences (NCATS), 2012):
Out of some 340,000 compounds screened, about 12,000 (3.5%) were called active. Inconclusive means that the source gave no clear call. Such entries were picked first, then a sample of the others. The call rests on the fitted dose curve; in most records, active means well fitted inhibition curve with a large enough effect; inconclusive means small, poorly fitted or top-dose-only effect, or another doubt; inactive means no such curve, though single readings can be large or run the other way. Potencies of inconclusive entries are left out as doubtful fits.

Test: qHTS Assay for Inhibitors of Hepatitis C Virus (HCV)
Conditions: Huh7.5.1 HCVcc-Cre (HCVcc is cell-culture hepatitis C virus) infection, luciferase reporter, 44 h; activity change, negative = inhibition: at 41.8 µM (top of the series)
Summary of the method: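 After 44 h co-culture of compound, cells and HCVcc-Cre (~0.5 moi), substrate is added for 15 min at room temperature and luciferase measured over 15 sec. Cells were seeded at 1,000/well and pre-cultured 4 h.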
On the % scale 0 is the no-effect control and ±100 the full control effect; potency means the concentration at half of the fitted maximal effect; tags describe the fitted curve by direction and shape.

Row | SMILES | activity change, negative = inhibition | Potency
1 | Cc1nc(CC(=O)c2ccc(O)c(C)c2O)cs1 | inactive: 10.5% | –
2 | CN=c1scc(C)n1/N=C/c1cc(Br)c(O)c(Br)c1 | inactive: 20% | –
3 | O=[N+]([O-])c1ccc(N2CCOCC2)cc1SCc1ccco1 | – | active: 11.2 µM
4 | CC(=O)Oc1ccc(/C=N/NC2=NS(=O)(=O)c3ccccc32)cc1 | inactive: 11.8% | –
5 | CN(C)c1nc(-c2ccccc2)c2cnn(Cc3ccccc3)c2n1 | – | inconclusive [inhibitor, partial curve]
6 | CCN1CCC(NCC2CCCCC2)CC1 | – | inconclusive [inhibitor, full curve]
7 | Cc1ccc2nc(-c3ccc(NS(=O)(=O)c4ccc(F)cc4)cc3)sc2c1 | inconclusive: -37.9% [inhibitor] | –
8 | CN(C(=O)CCN1C(=O)S/C(=C\c2ccccc2)C1=O)C1CCS(=O)(=O)C1 (stereo unspecified) | inactive: 9.57% | –
9 | Cc1cccc(-c2nnc(-c3cccc4ccccc34)o2)c1 | – | inconclusive [inhibitor, partial curve]
10 | COc1ccc(NCc2nnc(SCC(=O)c3ccc(OC)cc3)o2)cc1 | – | inconclusive [inhibitor, single point]
11 | CC1=C(C(=O)N2CCOCC2)C(c2cc(C)ccc2C)NC(=S)N1 (stereo unspecified) | – | inconclusive [inhibitor, partial curve]
12 | COc1ccc(S(=O)(=O)Nc2cccc3c2O[C@H](CN(C)Cc2ccc(-c4ccccc4)cc2)[C@@H](C)CN([C@H](C)CO)C3=O)cc1 | – | inconclusive [inhibitor, single point]
13 | CCOC(=O)C1=C(Cc2ccc(OC)cc2)C(=O)c2ccccc2C1=O | – | inconclusive [inhibitor, single point]
14 | CCOC(=O)C1CCCN(Cc2nc(N)nc(Nc3ccccc3)n2)C1 (stereo unspecified) | – | inconclusive [inhibitor, single point]
15 | COC(=O)C1=C(Nc2ccccc2NC(=O)c2ccccc2C(=O)O)CSC1 | inactive: 2.16% | –
16 | O=C(Cn1c(-c2cscn2)nc2ccccc21)Nc1cc(F)ccc1F | – | inconclusive [inhibitor, full curve, poor fit]
17 | N#Cc1c(SCC(=O)Nc2nccs2)nc2c(c1-c1ccco1)CCCC2 | – | inconclusive [inhibitor, full curve]
18 | COc1ccccc1-n1c(SCC(=O)N2CCc3ccccc32)nc2c(c1=O)SCC2 | – | inconclusive [inhibitor, partial curve]
19 | Cc1ccc(CN(C(=O)c2csnn2)C(C(=O)NC2CCCC2)c2ccccn2)cc1 (stereo unspecified) | inactive: -16.7% | –
20 | COc1ccc(-c2cc(C(F)(F)F)nc(SCC(=O)Nc3cc(C)on3)n2)cc1 | – | inconclusive [inhibitor, full curve, poor fit]
21 | O=C(Nc1ccccc1)Oc1cccc(Br)c1 | inactive: 20% | –
22 | Cc1c(C(=O)OCCOC(C)C)[nH]c2c1C(=O)CC(C)(C)C2 | – | inconclusive [inhibitor, partial curve]
23 | O=S(=O)(c1ccccc1)N1CCN(Cc2ccccc2)CC1 | inactive: 12.4% | –
24 | Cc1ccc2nc(SCC(=O)Nc3ccccc3N3CCOCC3)c(C#N)cc2c1 | – | inconclusive [inhibitor, partial curve]

Row | SMILES | activity change, negative = inhibition | Potency
25 | CNc1cc(CSC)nc(SCc2ccc(Cl)cc2Cl)n1 | – | inconclusive [inhibitor, single point]
26 | O=C(COc1ccc(Cl)cc1)OCc1ccc(Cl)cc1 | inactive: 17.1% | –
27 | CC(C)N1CCc2c(sc(NC(=O)c3ccc(S(=O)(=O)N4CCOCC4)cc3)c2C#N)C1 | – | inconclusive [inhibitor, single point]
28 | C=CCSc1nnc(-c2ccc([N+](=O)[O-])cc2)o1 | inactive: -2.63% | –
29 | CC(C)C(=O)NC(c1ccccc1)c1cc([N+](=O)[O-])c2cccnc2c1O (stereo unspecified) | – | inconclusive [inhibitor, single point]
30 | Cc1ccc2c(c1)C1C[N+](C)(CC(=O)c3ccc(Cl)cc3Cl)CCC1N2C(=O)c1ccc(F)cc1 (stereo unspecified) | – | active: 12.6 µM
31 | C[C@H]1CN([C@@H](C)CO)C(=O)Cc2cc(NC(=O)CCN3CCOCC3)ccc2O[C@@H]1CN(C)Cc1ccc(Oc2ccccc2)cc1 | – | inconclusive [inhibitor, single point]
32 | Nc1c(Cl)ncnc1N/N=C/c1ccc2ccccc2n1 | – | active: 3.98 µM
33 | O=C(Nc1ccc(Cl)cn1)c1ccc(COCC(F)(F)C(F)F)o1 | – | inconclusive [inhibitor, partial curve]
34 | Cc1nnc2nc(-c3ccccc3)nc(-c3ccccc3)n12 | – | inconclusive [inhibitor, single point]
35 | CN(CC1CCCO1)S(=O)(=O)c1ccc(C(=O)Nc2nc3cc4c(cc3s2)OCO4)cc1 (stereo unspecified) | – | inconclusive [inhibitor, full curve]
36 | CC(C)NC(=O)C1CCN(C2CCN(C(=O)c3scc4c3CCCC4)CC2)CC1 | – | inconclusive [inhibitor, single point]
37 | CCCCSc1nc(C)cc(SCC(=O)N/N=C/c2cccc(OC)c2O)n1 | – | inconclusive [inhibitor, full curve]
38 | COc1ccc(S(=O)(=O)N2CCCCCC2)cc1C(=O)NCc1cccs1 | – | inconclusive [inhibitor, partial curve]
39 | Cc1nnsc1C(=O)N/N=C/c1ccc2ccccc2c1O | – | inconclusive [inhibitor, full curve]
40 | CCCCN(Cc1ccccc1)C(=O)CCN1C(=O)C2C3C=CC(C3)C2C1=O (stereo unspecified) | inactive: 22.7% | –
41 | CC(=O)c1c(C)[nH]c(C(=O)OCC(=O)NCCC2=CCCCC2)c1C | – | inconclusive [inhibitor, single point]
42 | CN1C[C@@H]2[C@@H]3C(=O)N(C)C(=O)[C@@H]3[C@](C)(C1=O)N2C(=O)c1ccc(Br)cc1 | inactive: 13.4% | –
43 | Cc1cc2ccccn2c1C(=O)c1cc([N+](=O)[O-])cc([N+](=O)[O-])c1 | – | inconclusive [inhibitor, single point]
44 | Nc1cc(C(=O)OCC(=O)N2CCOCC2)ccc1Cl | inactive: 21.1% | –
45 | S=C(NCc1ccccc1Cl)NC1CCCC1 | – | inconclusive [inhibitor, single point]
46 | O=[N+]([O-])c1cc(C(F)(F)F)cc([N+](=O)[O-])c1NCCNC(=S)Nc1ccc(Cl)c(Cl)c1 | – | inconclusive [inhibitor, single point]
47 | O=c1ccn(-c2cccc(C(F)(F)F)c2)nc1-c1ccn(-c2ccccc2)n1 | inactive: -14% | –
48 | COCCN(C(=O)COC(=O)Cc1coc2cc3c(cc12)CCC3)c1c(N)n(Cc2ccccc2)c(=O)[nH]c1=O | – | inconclusive [inhibitor, full curve]

Row | SMILES | activity change, negative = inhibition | Potency
49 | c1ccc(-c2nnc(N3CCN(c4ccccn4)CC3)c3ccccc23)cc1 | – | active: 14.1 µM
50 | Nc1cc(=O)[nH]c(SCC(=O)c2ccc(O)cc2O)n1 | inactive: 17.2% | –
51 | COc1ccc(N(C)S(=O)(=O)c2cccc(C(=O)N3CCN(c4ccccc4)CC3)c2)cc1 | – | inconclusive [inhibitor, single point]
52 | COc1ccc(N=C/C=C2\C=C(c3ccccc3)OC(C)(C)O2)cc1 | – | inconclusive [inhibitor, single point]
53 | CCOc1c(Cl)cc(CNC(C)(C)CC(C)(C)C)cc1OC | – | inconclusive [inhibitor, full curve, poor fit]
54 | Cc1cc(Cl)nc2ccc(Cc3ccc4nc(Cl)cc(C)c4c3)cc12 | – | active: 10 µM
55 | Cc1cccc(CNC(=O)CCn2ccc3cc(S(=O)(=O)N4CCCC4)ccc32)c1 | – | inconclusive [inhibitor, single point]
56 | Cc1cc(C)nc(SCC(=O)Nc2nc(-c3ccccc3)c(-c3ccccc3)o2)n1 | – | inconclusive [inhibitor, partial curve]
57 | O=C(OCn1nnc2ccccc2c1=O)c1cn(-c2ccccc2)nc1-c1cccnc1 | – | active: 10 µM
58 | CCN(CC)C1CC(=O)N(c2ccc(Br)cc2)C1=O (stereo unspecified) | inactive: 19.9% | –
59 | COc1ccc(C(=O)N/N=C/c2ccc(OC)c(COc3ccc(F)cc3)c2)cc1 | inactive: -21% | –
60 | Cc1ccc(S(=O)(=O)Cc2ccc(C(=O)NC3CCCCCC3)o2)cc1 | – | inconclusive [inhibitor, single point]
61 | CC1(C)CC(=O)C=C(c2cccnc2)C1 | inactive: 0.781% | –
62 | CC(C)N(C(=O)Nc1ccc2nsnc2c1)C(C)C | – | active: 4.47 µM
63 | Cc1nc(C(=O)NCCO)cc2c1[nH]c1ccccc12 | – | active: 11.2 µM
64 | CCCCCCCCSc1nnc(CSc2nc3nc(C)cc(C)n3n2)o1 | – | inconclusive [inhibitor, single point]
65 | Cc1ccc(S(=O)(=O)N2[C@@H](c3ccc4c(c3)OCO4)C(C(=O)O)=C[C@H]2CC2CCCC2)cc1 | – | inconclusive [inhibitor, single point]
66 | O=C(COc1ccc2c(c1)OCO2)Nc1ccccc1C(F)(F)F | inactive: 11.7% | –
67 | CCn1c(SCC(=O)NCCc2ccccc2)nc2c(c1=O)SC(C)C2 (stereo unspecified) | – | inconclusive [inhibitor, single point]
68 | COC(=O)c1c(NC(C)=O)sc(C(=O)Nc2ccccc2OC)c1C | – | inconclusive [inhibitor, single point]
69 | Cc1nc(C(F)(F)F)ccc1C(=O)Nc1ccc2ccccc2n1 | – | inconclusive [inhibitor, single point]
70 | CCOC(=O)c1c(N)sc2c1CCN(CCc1ccccc1)C2 | inactive: -5.78% | –
71 | CCN(CC)S(=O)(=O)c1ccc(N2CCOCC2)c(NS(=O)(=O)c2ccc(OC)cc2)c1 | inactive: -16.1% | –
